Assay results as given in US11407811B2, “Fusion protein, preparation method therefor and use thereof” (JIANGSU RONGTAI BIOTECH CO., LTD., priority 2017, dated 2022).

Key:
[1] = test system: peritoneal capillary permeability in mice; test: Peritoneal capillary permeability in mice (HAc, Evans blue); format: in vivo; details: for inhibition of the increase of peritoneal capillary permeability induced by glacial acetic acid: in words; for Exudation rate (OD590) / PI (%): mice
Method: The drug was administered once by injection (EDSM needed to be administered twice a day), and the blank model group was given an equal volume of physiological saline and fed normally. On the 5th day, a 5 g/L Evans blue physiological saline solution was injected into the tail vein at […], followed by intraperitoneal injection ([…]) of a HAc solution (6 mL/L) to induce inflammation. After 20 min, the mice were sacrificed by cervical dislocation. 5 mL of physiological saline was intraperitoneally injected, the abdomen was gently rubbed for 2 min, the abdominal cavity was cut, a peritoneal washing solution was collected and centrifuged at 4000 rpm for 10 min, 1 mL of supernatant was taken, and 3 mL of physiological saline was added to obtain 4 mL of dilution. The absorbance OD value of the dilution was measured by an ultraviolet spectrophotometer at a wavelength of 590 nm, and the amount of pigment exudation was expressed by the OD590 nm value, and the peritoneal capillary permeability in mice was examined.

[2] = test system: cervical cancer cell Hela; test: MTT assay, proliferation of cervical cancer cell Hela; format: cell-based
Method: (§1) The MTT assay was used to detect the inhibitory effect of the integrin blocker fusion protein obtained in Example 1 on the proliferation of various tumor cells, including melanoma cell B16F10, gastric cancer cell MGC-803, lung cancer cell A549, liver cancer cell Hep-G2, breast cancer cell MDA-MB-231, colon cancer cell HCT-116, human glioma U87, and cervical cancer cell Hela.
(§2) The tumor cells were cultured in a 5% CO2 incubator at 37° C. to a density of 90% or more, and collected by trypsinization. The cells were resuspended in the culture liquid and counted under a microscope. The cell concentration was adjusted to 3.0×10^4 cells/mL. The cell suspension was inoculated into a 96-well plate at 100 μL per well and cultured overnight in a 5% CO2 incubator at 37° C. […] After the cells were fully adhered, each dilution was added to a 96-well plate at 100 μL per well, respectively. […] 20 μL of 5 mg/mL MTT was added to each well of a 96-well plate, and incubation was continued for 4 hours. The medium was aspirated and 100 μL of DMSO per well were added to dissolve. The absorbance was measured at 570 nm with a microplate reader with a reference wavelength of 630 nm, and the proliferation inhibition (PI) was calculated. The formula is as follows: […]
(§3) where Ntest is the OD value of the test group and Ncontrol is the OD value of the blank control group.
(§4) The test was repeated 5 times independently. The results obtained from the test were calculated as mean±SD, and statistical t-test was performed. P<0.05 was considered as a significant difference, and P<0.01 was considered as an extremely significant difference.

[3] = test system: angiogenesis of chicken embryo chorioallantoic membrane; test: Chicken embryo chorioallantoic membrane (CAM) angiogenesis assay; format: in vivo; details: for Blood vessel number / PI: CAM, 72 hours; for inhibitory effect on angiogenesis of CAM: high dose
From the text: In this study, CAM assay was used to investigate the activity of fusion protein I, protein II, protein III, protein IV, and protein V to inhibit angiogenesis in vivo. The study has shown that the biosynthesis rate of collagen reached the maximum on the 8th to 11th day of chicken embryo development, which was the most vigorous stage of angiogenesis, and the body's immune system had not yet been fully established at that time, and thus the chicken embryos developed to the 8th day was selected to be administered. […] The following steps were used.
(1) The White Leghorn chicken embryos on day 6 were cultured in a 37° C. incubator at 60%-70% humidity for two days.
(2) A 1.0 cm×1.0 cm window was drilled above the chicken embryo air sac, and the inner membrane was torn off with forceps to expose the chorioallantoic membrane. Lens paper having a diameter of 5 mm was used as a loading carrier, and was placed on the chorioallantoic membrane of the chicken embryo air sac. Filter paper with PBS was used as a blank group, and the administration group was added with different doses of fusion protein.
(3) The chicken embryo air sac was sealed with a sterile transparent tape, and after culturing at 37° C. for 72 hours, the chicken embryo air sac was opened, and a fixative (formaldehyde:acetone=1:1) was added for fixation for 15 minutes. The chorioallantoic membrane to which the lens paper was adhered was taken out, the distribution of the new blood vessels was observed, and the new blood vessels were counted and photographed. Five replicates were set for each dose and the results were statistically analyzed.

lung cancer cell A549 = test: MTT assay, proliferation of lung cancer cell A549; format: cell-based
Method: as §1, §2, §3, §4

B1: Protein I: IgG1-Fc linked to antiangiogenesis polypeptide EDSM-Y via a flexible linker; SEQ ID NO: 15 (protein)
chain: [sequence of human IgG1 Fc not given]GGGGSGGGGSGGGGSFQPVLHLVALNSPLSGGMRGIRGADFQCFQQARAVGLAGTFRAGGGGRGD
- inhibition of the increase of peritoneal capillary permeability induced by glacial acetic acid [1]: could significantly inhibit the increase of peritoneal capillary permeability
- Exudation rate (OD590) ([1]; dose 8 mg/kg): 0.51 ± 0.04
- PI (%) ([1]; dose 8 mg/kg): 26.09%
- Exudation rate (OD590) ([1]; dose 32 mg/kg): 0.47 ± 0.03
- PI (%) ([1]; dose 32 mg/kg): 31.88%
- Exudation rate (OD590) ([1]; dose 128 mg/kg): 0.28 ± 0.06
- PI (%) ([1]; dose 128 mg/kg): 59.42%
- A570 nm/A630 nm ([2]; dose 1 μg/mL): 0.7882 ± 0.0412
- PI (%) ([2]; dose 1 μg/mL): 1.38%
- A570 nm/A630 nm ([2]; dose 2 μg/mL): 0.7454 ± 0.0374
- PI (%) ([2]; dose 2 μg/mL): 6.73%
- A570 nm/A630 nm ([2]; dose 4 μg/mL): 0.6879 ± 0.0381
- PI (%) ([2]; dose 4 μg/mL): 13.93%
- A570 nm/A630 nm ([2]; dose 8 μg/mL): 0.6135 ± 0.0362
- PI (%) ([2]; dose 8 μg/mL): 23.24%
- A570 nm/A630 nm ([2]; dose 16 μg/mL): 0.5365 ± 0.0293
- PI (%) ([2]; dose 16 μg/mL): 32.87%
- A570 nm/A630 nm ([2]; dose 32 μg/mL): 0.4587 ± 0.0325
- PI (%) ([2]; dose 32 μg/mL): 42.61%
- A570 nm/A630 nm ([2]; dose 64 μg/mL): 0.3878 ± 0.0287
- PI (%) ([2]; dose 64 μg/mL): 51.48%
- A570 nm/A630 nm ([2]; dose 128 μg/mL): 0.2655 ± 0.0302
- PI (%) ([2]; dose 128 μg/mL): 66.78%
- A570 nm/A630 nm ([2]; dose 256 μg/mL): 0.1522 ± 0.0315
- PI (%) ([2]; dose 256 μg/mL): 80.96%
- Blood vessel number ([3]; 8 μg): 93 ± 5
- PI ([3]; 8 μg): 24.39%
- Blood vessel number ([3]; 32 μg): 76 ± 2
- PI ([3]; 32 μg): 38.21%
- Blood vessel number ([3]; 128 μg): 50 ± 9
- PI ([3]; 128 μg): 59.35%
- inhibitory effect on angiogenesis of CAM [3]: ~50%
- A570 nm/A630 nm (lung cancer cell A549; dose 1 μg/mL): 0.9036 ± 0.0441
- PI (%) (lung cancer cell A549; dose 1 μg/mL): 6.72%
- A570 nm/A630 nm (lung cancer cell A549; dose 2 μg/mL): 0.8409 ± 0.0378
- PI (%) (lung cancer cell A549; dose 2 μg/mL): 13.19%
- A570 nm/A630 nm (lung cancer cell A549; dose 4 μg/mL): 0.7865 ± 0.0417
- PI (%) (lung cancer cell A549; dose 4 μg/mL): 18.81%
- A570 nm/A630 nm (lung cancer cell A549; dose 8 μg/mL): 0.6665 ± 0.0373
- PI (%) (lung cancer cell A549; dose 8 μg/mL): 31.20%
- A570 nm/A630 nm (lung cancer cell A549; dose 16 μg/mL): 0.5789 ± 0.0267
- PI (%) (lung cancer cell A549; dose 16 μg/mL): 40.24%
- PI (%) (lung cancer cell A549; dose 16 μg/mL, listed as fusion protein I): about 40%
- A570 nm/A630 nm (lung cancer cell A549; dose 32 μg/mL): 0.4687 ± 0.0384
- PI (%) (lung cancer cell A549; dose 32 μg/mL): 51.62%
- A570 nm/A630 nm (lung cancer cell A549; dose 64 μg/mL): 0.3323 ± 0.0333
- PI (%) (lung cancer cell A549; dose 64 μg/mL): 65.70%
- A570 nm/A630 nm (lung cancer cell A549; dose 128 μg/mL): 0.1745 ± 0.0219
- PI (%) (lung cancer cell A549; dose 128 μg/mL): 81.99%
- A570 nm/A630 nm (lung cancer cell A549; dose 256 μg/mL): 0.0896 ± 0.0233
- PI (%) (lung cancer cell A549; dose 256 μg/mL): 90.75%

B2: Protein III: mIgG4-Fc linked to antiangiogenesis polypeptide EDSM-Y via a flexible linker; SEQ ID NO: 19 (protein)
chain: [sequence of human IgG4 Fc with S228P F234A L235A (EU numbers) and a few adjoining residues not given]GGGGSGGGGSGGGGSFQPVLHLVALNSPLSGGMRGIRGADFQCFQQARAVGLAGTFRAGGGGRGD
- inhibition of the increase of peritoneal capillary permeability induced by glacial acetic acid [1]: could significantly inhibit the increase of peritoneal capillary permeability
- Exudation rate (OD590) ([1]; dose 8 mg/kg): 0.54 ± 0.04
- PI (%) ([1]; dose 8 mg/kg): 21.74%
- Exudation rate (OD590) ([1]; dose 32 mg/kg): 0.41 ± 0.07
- PI (%) ([1]; dose 32 mg/kg): 40.58%
- Exudation rate (OD590) ([1]; dose 128 mg/kg): 0.31 ± 0.03
- PI (%) ([1]; dose 128 mg/kg): 55.07%
- A570 nm/A630 nm ([2]; dose 1 μg/mL): 0.7806 ± 0.0400
- PI (%) ([2]; dose 1 μg/mL): 2.33%
- A570 nm/A630 nm ([2]; dose 2 μg/mL): 0.7465 ± 0.0381
- PI (%) ([2]; dose 2 μg/mL): 6.59%
- A570 nm/A630 nm ([2]; dose 4 μg/mL): 0.6888 ± 0.0374
- PI (%) ([2]; dose 4 μg/mL): 13.81%
- A570 nm/A630 nm ([2]; dose 8 μg/mL): 0.6254 ± 0.0342
- PI (%) ([2]; dose 8 μg/mL): 21.75%
- A570 nm/A630 nm ([2]; dose 16 μg/mL): 0.5478 ± 0.0279
- PI (%) ([2]; dose 16 μg/mL): 31.46%
- A570 nm/A630 nm ([2]; dose 32 μg/mL): 0.4825 ± 0.0263
- PI (%) ([2]; dose 32 μg/mL): 39.63%
- A570 nm/A630 nm ([2]; dose 64 μg/mL): 0.4121 ± 0.0199
- PI (%) ([2]; dose 64 μg/mL): 48.44%
- PI (%) ([2]; dose 64 μg/mL, listed as protein III): about 45%
- A570 nm/A630 nm ([2]; dose 128 μg/mL): 0.3022 ± 0.0242
- PI (%) ([2]; dose 128 μg/mL): 62.19%
- A570 nm/A630 nm ([2]; dose 256 μg/mL): 0.1879 ± 0.0228
- PI (%) ([2]; dose 256 μg/mL): 76.49%
- Blood vessel number ([3]; 8 μg): 93 ± 7
- PI ([3]; 8 μg): 24.39%
- Blood vessel number ([3]; 32 μg): 75 ± 1
- PI ([3]; 32 μg): 39.02%
- Blood vessel number ([3]; 128 μg): 49 ± 10
- PI ([3]; 128 μg): 60.16%
- inhibitory effect on angiogenesis of CAM [3]: ~50%
- A570 nm/A630 nm (lung cancer cell A549; dose 1 μg/mL): 0.9105 ± 0.0332
- PI (%) (lung cancer cell A549; dose 1 μg/mL): 6.01%
- A570 nm/A630 nm (lung cancer cell A549; dose 2 μg/mL): 0.8560 ± 0.0292
- PI (%) (lung cancer cell A549; dose 2 μg/mL): 11.63%
- A570 nm/A630 nm (lung cancer cell A549; dose 4 μg/mL): 0.7769 ± 0.0273
- PI (%) (lung cancer cell A549; dose 4 μg/mL): 19.80%
- A570 nm/A630 nm (lung cancer cell A549; dose 8 μg/mL): 0.6949 ± 0.0316
- PI (%) (lung cancer cell A549; dose 8 μg/mL): 28.26%
- A570 nm/A630 nm (lung cancer cell A549; dose 16 μg/mL): 0.5897 ± 0.0198
- PI (%) (lung cancer cell A549; dose 16 μg/mL): 39.12%
- PI (%) (lung cancer cell A549; dose 16 μg/mL, listed as protein III): about 40%
- A570 nm/A630 nm (lung cancer cell A549; dose 32 μg/mL): 0.4436 ± 0.0249
- PI (%) (lung cancer cell A549; dose 32 μg/mL): 54.21%
- A570 nm/A630 nm (lung cancer cell A549; dose 64 μg/mL): 0.3165 ± 0.0217
- PI (%) (lung cancer cell A549; dose 64 μg/mL): 67.33%
- A570 nm/A630 nm (lung cancer cell A549; dose 128 μg/mL): 0.2116 ± 0.0206
- PI (%) (lung cancer cell A549; dose 128 μg/mL): 78.16%
- A570 nm/A630 nm (lung cancer cell A549; dose 256 μg/mL): 0.1212 ± 0.0195
- PI (%) (lung cancer cell A549; dose 256 μg/mL): 87.49%
